# The RNAGym collection of RNA variant scans (doi:10.1093/nar/gkz1192)
# Read counts are not given, so values of variants with three or more changes are uncertain.
# B1: CPEB3 Ribozyme (parent)
# chain: UAACAGGGGGCCACAGCAGAAGCGUUCACGUCGCAGCCCCUGUCAGAUUCUGGUGAAUCUGCGAAUUCUGCUGUAUAUCUC
# Variants of: B1
# Assay: self-cleavage, relative activity (ratio to wild type); higher = more cleavage; in vitro, sequencing
# Procedure, shortened: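 Barcoded CPEB3 ribozyme mutants, produced by rounds of error-prone PCR, self-cleaved while being transcribed with T7 RNA polymerase for 5 hours at 37°C and during a subsequent 15 min DNase I step before EDTA was added. Sequencing of template-switched cDNA on Illumina gave cleaved and total reads, and DNA sequencing assigned barcodes to variants. Each variant's relative activity is its cleaved/total read fraction divided by the unmutated ribozyme's fraction, averaged across three batches. A variant needed a minimum of 5 reads.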
row,Variant,self-cleavage
1,UAACAGGGGGCCACAGCAGACGCGUUCGCGUCGCAGCCCCUGUCAGAUUCUGGGGAACCUGCGAAUUCUGCUGCAUAACUC,0.03
2,UAACAGGGGGCCACAGCAGACGCGUUCACGUCGCAGCCCCUGUCUGAUUCUGGUGAAUCUGCGAACUCUGCUGUAUAUCUC,0.13
3,UAACAGGGGGCCACAGCAGACGCGUUCACGUCGCAGCCCCUGUCAGAUUCUGGUGAGUCUGCGAAUUCUGAUGUAUAUCUC,0.05
4,UAACAGGGGGCCACAGCAGACGCGUUCACGUCGCAGCCCCUGUCAGAUUCUGGUGAAUCUGCGAGUUCUGCUGUAUGUCUC,0.15
5,UAACAGGGGGCCACAGCAGACGCGUUCAUGUCGCAGCCCCUGUCAGAUUCUGGUGAGUCCGCGAAUUCUGCUGUAUAUCUC,0.05
6,UAACAGGGGGCCACAGCAGACAAGUUCACGUCGCAGCCCCAGUCGGAUUCUGGUGAAUCUGCGAAUUCUGCUGCAUAUCCC,0.09
7,UAACAGGGGGCCACAGCAGACGCGUUCACGUCCCAGCCCCUGUCAGAUUCUGGUGAGUCUGCGAAUUCUGCCGUAUAUCUC,0.14
8,UAACAGGGGGCCACAGCAGACGCGUUCACGUCGCAACCCCUGUCAGAUUCUGGUGAAUCUGCGAAUCCUGCUGUAUAUCUC,0.08
9,UAACAGGGGGCCACAGCAGACGCGCCCACGUUGCAGCCCCUGUCAGAUUCUGGUGAAUCUGCGAAUUCUGCUGUAUAUCUC,0.04
10,UAACAGGGGGCCACAGCAGACGCGUACACGUCGCAUCCCCCGUCAGAUUCUGGUGAAUCUGCGAAUUCUGCUGUAUGCCUC,0.09
11,UAACAGGGGGCCACAGCAGACGCGUUCACGUCGCAGCCCCUGUCAGAUCCUGGUGAAUCUGCGAAUCCUGCUGUGUAUCUC,0.1
12,UAACAGGGGGCCACAGCAGACGCGUUCACGUCGCAGCCCCUGUCAGAUUCUGGCGAACCUGCGAAUUCUGCUGUAUAUCUC,0.17
13,UAACAGGGGGCCACAGCAGACGCGUUCACGUCGCAGCCCCUGUCAGAUUCUGGUGAAUCUGCGAAUUCCGCAGUAUAUCUC,0.15
14,UAACAGGGGGCCACAGCAGAGGCGUUCCCGCCGCAGCCCCUGUCUGAUUCUGGUGAAUCUGCGAAUUCUGCUGUAUAUCUC,0.19
15,UAACAGGGGGCCACAGCAGAGGCGUUCCCGCCGCAGCCCCUGUCAGAUUCUGGUGAAUCUGCGAAUUCCGCUGUAUAUCUC,0.06
16,UAACAGGGGGCCACAGCAGAGGCGUUCGCGUCGCGGCCCCUGUCAGAUUCUGGUGAAUCUGCGAUUUCUGCUGUAUGUCUC,0.12
17,UAACAGGGGGCCACAGCAGAGGCGUUCGCGUCGCGGCCCCUGUCAGAUUCUGGUGAACCUGCGAAUUCUGCUGUAUAUCUC,0.16

row,Variant,self-cleavage
1,UAACAGGGGGCCACAGCAGAGGCGUUCGCGUCGCAGCCCCUGUCGGAUUCUGGUGAAUCUGCGAAUUCUGCUGUAUAUCUC,0.49
2,UAACAGGGGGCCACAGCAGAGGCGUUCGCGUCGCAGCCCCUGUCUGACUCUGGUGAAUCUGCUAAUUCUGCUGUAUAUCUC,0.53
3,UAACAGGGGGCCACAGCAGAGGCGUUCGCGUCGCAGCCCCUGUCAGAUUCUGGUGAAUCUGCGGAUUCUGCUGUAUAUCUC,0.2
4,UAACAGGGGGCCACAGCAGAGGCGUUCGCGUCGCAGCCCCUGUCACAUUCUGGUGAAUCUGCGAAUUCUGCUGUAUAUCUC,0.26
5,UAACAGGGGGCCACAGCAGAGGCGUUCGCGCCGCAGCCCCUGACAGAUUCUGGUGGAUCUGCGUACUCUGCUGUAUAUCUC,0.07
6,UAACAGGGGGCCACAGCAGAGGCGUUCGCGUCGCAGCCCCAGCCAGAUUCUGGUGAAUCUGCGAAUUCUGCUGUAUAUCUC,0.08
7,UAACAGGGGGCCACAGCAGAGGCGUUCGCGUCGCAGCCCCAGCCAGAUUCUGGUGAAUCUGCGAAUUCUGCGGUAUAUCUC,0.32
8,UAACAGGGGGCCACAGCAGAGGCGUUCGCGUCGCAGCCCCUGCCAGAUUCUGGUGAAUCUGCGAAUUCUGCUGUAUAUCCC,0.38
9,UAACAGGGGGCCACAGCAGAGGCGUUCGCGUCGCAGCCCCUGUCAGAUACUGGAGACUCUGCGAAUUCUGCCGUAUAUCUC,0.04
10,UAACAGGGGGCCACAGCAGAGGCGUUCGCGUCGCAGCCCCUGUCAGAUACUGGUGAAUCGGCGAAUUCUGCUGUAUAUCUC,0.22
11,UAACAGGGGGCCACAGCAGAGGCGUUCGCGUCGCAGCCCCUGUCAGAUUCUGGUGAAACUGCGAAUUCUGCUGUAUAUCUC,0.21
12,UAACAGGGGGCCACAGCAGAGGCGUUCGCGUCGCAGCCCCUGUCAGAUUCUGGUGAAUCUGCGAAUCCUGCUGUAUGUCCC,0.04
13,UAACAGGGGGCCACAGCAGAGGCGUUCGCGUCGCAGCCCCUGUCAGAUUCUGGUGAAUCUGCGAAUUCCACUGUAUAUCUC,0.28
14,UAACAGGGGGCCACAGCAGAGGCGUUCGCGUCGCAGCCCCUGUCAGAUUCUGGUGAAUCUGCGAAUUCUGCUGUAUAUCCC,0.42
15,UAACAGGGGGCCACAGCAGAGGCGUUCUCGUCGCAGCCCCUGUUAGGUUCUGCUGAAUCUCCGAAUUCAGCUGUAUAUCUC,0.02
16,UAACAGGGGGCCACAGCAGAGGCGUUCUCGACGCAGCCCCCGUCAGACUCUGGUGAAUCUGCGAAUUCUGCUGUAUAUCUC,0.23
17,UAACAGGGGGCCACAGCAGAGGCGUUCUCGUCGCAGCCCCCGUCAGAUUCUGAUGAAUCUGCGAAUUCUGCCGUAUAUCUC,0.3
